# Experimental data reported in PubChem BioAssay AID1240 (Sanford-Burnham Center for Chemical Genomics, 2008).
# About 800 (1.6%) of roughly 50,000 compounds showed an effect of 50% or more. Some of the results follow.
# Target: Bcl-2-like protein 10 (Homo sapiens) (UniProt Q9HD36)
# Assay: TR3 peptide-Bcl-B binding displacers, biochemical primary FP assay, phenotype converters (AID 1240);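 also: 0% = Bcl-B with tracer peptide and DMSO and 100% = tracer peptide lacking Bcl-B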
# Settings: GST-Bcl-B / FITC-TR3 peptide fluorescence polarization; stronger effect = higher value; compound at 3.75 mg/L
# UniProt Q9HD36, sequence (Q9HD36 whole entry, looked up): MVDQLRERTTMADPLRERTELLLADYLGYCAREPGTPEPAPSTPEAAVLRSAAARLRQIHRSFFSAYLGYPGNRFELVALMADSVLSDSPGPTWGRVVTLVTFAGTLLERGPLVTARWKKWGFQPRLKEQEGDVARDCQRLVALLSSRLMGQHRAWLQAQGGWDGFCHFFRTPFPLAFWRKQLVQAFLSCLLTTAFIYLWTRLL
row,Compound,displacement [%]
1,COc1ccc(NC(=O)c2cccc(F)c2)cc1OC,-9
2,Cc1sc(/C=C(/C#N)C(N)=S)cc1Br,-1.4
3,CC(=O)NCC1OCCc2ccccc21 (stereo unspecified),-0.3
4,COc1ccc2nc(NC(=O)c3ccccc3[N+](=O)[O-])sc2c1,16
5,COc1ccc(N2CC(C(=O)N/N=C/c3cc([N+](=O)[O-])ccc3O)CC2=O)cc1 (stereo unspecified),-9.6
6,COc1cc(-c2nc3ccccn3c2/N=C/c2cc3c(cc2[N+](=O)[O-])OCO3)ccc1O,10
7,CC(=O)/C=C1/SCC(=O)N1c1ccccc1,-2.8
8,CC(C)c1ccc(-c2cc(C(=O)NCCN3CCOCC3)c3ccccc3n2)cc1,-6.9
9,COc1ccc(OC)c(/C=N/n2nnnc2N)c1,12.7
10,NC1=NC(=O)/C(=C/c2cc(Cl)c(OCc3ccccc3)c(Cl)c2)S1,12.1
11,Cc1cccc(OCC(=O)Nc2ccc(Cl)cc2C(F)(F)F)c1,0
12,COc1ccc(Cl)cc1C(=O)NCC(C)C,-5.8
13,O=C(c1ccc(Cl)cc1)N1CCN(c2ccc([N+](=O)[O-])c(NCc3ccccc3)c2)CC1,-4.6
14,Cc1ccccc1/C=C1\SC(=S)N(Cc2ccccc2)C1=O,32.3
15,CC(=O)Nc1ccc(S(=O)(=O)N(CCc2ccccc2)CC(=O)O)cc1,-18.1
16,O=C(O)CCN1C(=O)/C(=C/c2cn(-c3ccccc3)nc2-c2ccccc2)SC1=S,2.5

row,Compound,displacement [%]
1,COC(=O)c1ccc(C(=O)OC)c(NC(=O)COc2ccccc2[N+](=O)[O-])c1,66.9
2,CCc1ccc(S(=O)(=O)Nc2ccc(NC(C)=O)cc2)cc1,-7.9
3,CCCCOc1ccc(NC2=NC3(CCCCC3)N=C(N)N2)cc1,-10
4,C=CCOc1ccc2c(OC)c3ccoc3nc2c1OC,-2.7
5,Cc1ccc2nc(-c3cc(NC(=O)c4cccs4)ccc3Cl)oc2c1,2
6,CCn1cc(C(=O)NN)c(=O)c2cc(F)c(N3CCOCC3)cc21,22.2
7,CC(C)c1ccc(/C=N/n2cnnc2)cc1,5.8
8,CCN(CC)CCOc1ccccc1Cl,2.7
9,CCOC(=O)C1=C(C)N(c2ccccc2)C(=O)C1CC(=O)Nc1ccc(C)cc1C (stereo unspecified),-3.5
10,O=C(Nc1cccc(F)c1)Nc1cccc(NC(=O)Nc2cccc(F)c2)c1,3
11,CC(c1ccccc1)c1nnc(NC(=O)c2cccs2)s1 (stereo unspecified),-3
12,Cc1ccc2cc(C3CC(c4ccc(Br)cc4)=NN3C(=O)CCC(=O)O)c(=O)[nH]c2c1 (stereo unspecified),14
13,CC(C)(C)C(=O)Nc1ccc(C(=O)Nc2ccc(O)cc2C(=O)O)cc1,7.6
14,O=C(CCCN1C(=O)/C(=C\c2cccs2)SC1=S)NC12CC3CC(CC(C3)C1)C2,9.2
15,CCc1ccccc1OCCN(CC)CC,7
